# Experimental data taken from PubChem BioAssay AID588855 (National Center for Advancing Translational Sciences (NCATS), 2011).
# The campaign covered roughly 410,000 compounds. About 5,000 (1.2%) were called active. The shares of active, inactive and inconclusive entries below differ from those in the screen. The call rests on the fitted dose curve; in most records, active means well fitted inhibition curve with a large enough effect; inconclusive means small, poorly fitted or top-dose-only effect; inactive means no such curve, though single readings can be large or run the other way. Potencies beside an inconclusive call are fits to weak or partial responses and may not hold up.
# Assay: qHTS for Inhibitors of TGF-b; further: nearly all actives have a fitted effect of over 65% in size
# Conditions: HepG2 CAGA-GFP TGF-b/SMAD3 reporter, GFP fluorescence, 18 h, TGF-beta stimulated, 500 pg/mL final; series mostly up to 46.1 µM
# In short: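 Cell-based qHTS in HEPG2 carrying a CAGA-GFP Smad reporter; compounds added before 500 pg/mL final TGF-beta, 18 h incubation at 37 degrees C, GFP fluorescence quantified per cell by imaging cytometry.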
# Potency means the concentration at half of the fitted maximal effect; tags describe the fitted curve by direction and shape.
row,SMILES,Potency
1,Cc1ccc(NC(=S)N2CCN(Cc3ccc4c(c3)OCO4)CC2)c(C)c1,inactive
2,CC(=O)N1c2ccc(S(=O)(=O)NCC3CCC(C(=O)N4CCCC(C)C4)CC3)cc2CC1C (stereo not drawn),inactive
3,CCOC(=O)C1=C(C)N(C[C@@H]2CC[C@@H](Cc3ccc(-c4ccccc4)cc3)O2)C(=O)NC1C1CC1 (stereo partly drawn),"inconclusive: 28.2 µM [inhibitor, single point]"
4,CC(=O)N1c2ccc(S(=O)(=O)NCC3CCC(C(=O)Nc4ccccc4C)CC3)cc2CC1C (stereo not drawn),inactive
5,CSc1ncccc1C(=O)Nc1ccc(OC(F)(F)F)cc1,inactive
6,O=C(Nc1ccc([N+](=O)[O-])cc1)c1cc(Cl)sc1Cl,"inconclusive: 11.2 µM [inhibitor, single point]"
7,Cc1oc(-c2ccccc2F)nc1CS(=O)(=O)CC(=O)N1CCOCC1,inactive
8,FC(F)(F)c1cccc(NC(=S)Nc2ccc(Cl)cc2Cl)c1,"inconclusive: 35.5 µM [inhibitor, single point]"
9,CCc1ccc(OCC(=O)N(Cc2ccc(C)cc2)Cc2ccco2)cc1,"inconclusive: 22.4 µM [inhibitor, single point]"
10,COc1ccc(OC)c(S(=O)(=O)Nc2ccc(-c3ccc4nnc(C)n4n3)cc2)c1,inactive
11,CCCN1C(=O)C(O)(CC(=O)c2ccc(CC)cc2)c2cc(Br)ccc21 (stereo not drawn),"inconclusive: 11.2 µM [inhibitor, partial curve, poor fit]"
12,Cc1cccc(OCC(=O)Nc2nonc2-c2ccc(Br)cc2)c1C,"inconclusive: 2.82 µM [inhibitor, full curve]"
13,COc1ccccc1-c1c(C)nn2c(-c3ccccc3)cc(C)nc12,inactive
14,CC(C)C(=O)NC(C)C(c1cccs1)N1CCN(c2ccccc2)CC1 (stereo not drawn),inactive
15,CC1CCCCC12NC(=O)N(CC(=O)NCc1ccccc1Cl)C2=O (stereo not drawn),"inconclusive: 6.31 µM [inhibitor, single point]"
16,Cc1nn(Cc2ccccc2Cl)c(C)c1NC(=O)CCCn1nc([N+](=O)[O-])c(Cl)c1C,"inconclusive: 3.98 µM [inhibitor, partial curve, poor fit]"
17,Cc1ccc(OCCN(C)C(=O)C2CCC(=O)N(CCCN3CCOCC3)C2)cc1 (stereo not drawn),inactive
18,O=C1[C@H]2[C@@H](c3ccccc3)N[C@]3(CCCN(Cc4ccc(C(F)(F)F)cc4)C3=O)[C@H]2C(=O)N1Cc1ccccc1,"inconclusive: 35.5 µM [inhibitor, single point]"
19,O=C(NN=Cc1ccc2c(c1)OCO2)C1CC1,inactive
20,Cc1cccc(NC(=O)CSc2nnc(-c3n[nH]c4ccccc34)o2)c1,"inconclusive: 0.112 µM [inhibitor, full curve, poor fit]"
21,CCC(C)NC(=O)Cn1c(=O)n(CC2CCC(C(=O)NC)CC2)c(=O)c2sccc21 (stereo not drawn),inactive
22,Fc1cccc(Cc2c(-c3ccccc3)nc3ccc(Br)cn23)c1,"inconclusive: 35.5 µM [inhibitor, single point]"
23,Cc1cccc(NC(=O)C2CCN(S(=O)(=O)c3cccc4nsnc34)CC2)c1,"inconclusive: 5.62 µM [inhibitor, single point]"

row,SMILES,Potency
1,CC(=O)C(=Nc1ccc(Cl)cc1Cl)NNc1cccc(Cl)c1,active: 22.4 µM
2,S=C(NCCSCc1ccc(Cl)c(Cl)c1)Nc1ccccc1,"inconclusive: 12.6 µM [inhibitor, partial curve, poor fit]"
3,CC1CCN(c2nnc(-n3cccc3CNc3cccc(F)c3)s2)CC1,"inconclusive: 10 µM [inhibitor, partial curve, poor fit]"
4,COc1cc2ccccc2cc1C(=O)N1CCN(c2nc3c(C)cc(C)cc3s2)CC1,"inconclusive: 20 µM [inhibitor, partial curve, poor fit]"
5,C[C@H](O)[C@@H]1C(=O)N2CCc3c([nH]c4ccccc34)[C@@H]2C[C@@H]1N(C)Cc1ccc(Cl)cc1,"inconclusive: 35.5 µM [inhibitor, single point]"
6,C=CCNc1n[nH]c(=S)s1,"inconclusive: 1.58 µM [inhibitor, full curve]"
7,CCCNc1c(NS(=O)(=O)c2ccc(C)cc2C)c(=O)oc2ccccc12,"inconclusive: 11.2 µM [inhibitor, single point]"
8,CN1C/C(=C/c2cccnc2)C(=O)/C(=C/c2cccnc2)C1,active: 2.82 µM
9,CC1(C(=O)Nc2cccc(OC(F)(F)F)c2)Cc2c(-c3ccc(C(N)=O)cc3)ccnc2O1 (stereo not drawn),"inconclusive: 10 µM [inhibitor, partial curve, poor fit]"
10,Nc1cc(S(=O)(=O)Nc2ccc(Cl)cc2)ccc1N1CCOCC1,"inconclusive: 11.2 µM [inhibitor, single point]"
11,O=C(/C=C/c1ccc(N2CCCCC2)c([N+](=O)[O-])c1)c1ccc(O)cc1,"inconclusive: 35.5 µM [inhibitor, single point]"
12,O=C(NCc1ccccc1)C1=C[C@H](c2coc3ccccc3c2=O)C[C@H](OCc2ccc(CO)cc2)O1,"inconclusive: 12.6 µM [inhibitor, partial curve]"
13,COc1ccccc1OCC(=O)Nc1nnc2n1CCS2,"inconclusive: 28.2 µM [inhibitor, single point]"
14,O=C(NCc1nc2ccccc2[nH]1)C1=C[C@@H](c2csc3ccccc23)C[C@@H](OCc2ccc(CO)cc2)O1,"inconclusive: 7.08 µM [inhibitor, full curve]"
15,CC12CCC=CC1C(c1ccc(Br)cc1F)N(Cc1ccccc1)C2=O (stereo not drawn),"inconclusive: 35.5 µM [inhibitor, single point]"
16,COc1cccc(-c2cnc3c(NC(C)=O)cc(-c4cccc(C(=O)NCCN(C)C)c4)cn23)c1,"inconclusive: 35.5 µM [inhibitor, single point]"
17,CCOc1ccccc1-n1c(CNc2ccc(F)cc2)nnc1SCC(=O)NCc1ccco1,active: 8.91 µM
18,CC(/C=C/c1ccc2c(c1)OCO2)=N/NC(=O)COc1ccc(C)cc1,"inconclusive: 3.98 µM [inhibitor, single point]"
19,COc1ccc(S(=O)(=O)N2CCC(C(=O)c3ccc4c(c3)OCCO4)CC2)cc1,"inconclusive: 35.5 µM [inhibitor, single point]"
20,COc1ccc(-c2cc(C(=O)NCCN3CCOCC3)no2)cc1OC,inactive
21,CC(C)(C)c1ccc(S(=O)(=O)NCc2nc3cccnc3n2Cc2ccccc2Cl)cc1,"inconclusive: 11.2 µM [inhibitor, partial curve, poor fit]"
22,O=C(CCN1CCOCC1)NNC(=O)/C(=C/c1ccccc1)NC(=O)c1ccccc1,inactive
23,CN1CCN(Cc2c(C#N)c3ccccc3n2C)CC1,"inconclusive: 6.31 µM [inhibitor, single point]"

row,SMILES,Potency
1,O=C(c1ccc(Cl)c(Cl)c1)N1CCCC1,"inconclusive: 15.8 µM [inhibitor, single point]"
2,CC(C)n1ncc2c(C(=O)NCC(=O)Nc3ccccc3Br)cc(C3CC3)nc21,"inconclusive: 35.5 µM [inhibitor, single point]"
3,CN(Cc1ccc(OCC(O)CN2CCCCC2)cc1)Cc1ccnc2ccccc12 (stereo not drawn),"inconclusive: 7.08 µM [inhibitor, partial curve, poor fit]"
4,Cc1nn(CC2CCCCC2)c(N)c1-c1ccccc1,"inconclusive: 2.82 µM [inhibitor, single point]"
5,O=C(Nc1ccc(S(=O)(=O)N2CCOCC2)cc1)c1cc(-c2cc(Cl)ccc2O)n[nH]1,"inconclusive: 22.4 µM [inhibitor, single point]"
6,O=C(Nc1ccc(N2CCCCC2)c(Cl)c1)c1ncn[nH]1,inactive
7,Cc1cccc(Nc2nc(N)c([N+](=O)[O-])c(N3CC(C)CC(C)C3)n2)c1 (stereo not drawn),"inconclusive: 12.6 µM [inhibitor, partial curve, poor fit]"
8,O=C(N/N=C/c1ccc(O)c(O)c1)C1CC1,inactive
9,CCOc1ccc(NS(=O)(=O)c2ccc(C(=O)NCc3cccnc3)cc2)cc1,inactive
10,COc1ccccc1C(=O)N1CCN(c2nc3cc(C)c(C)cc3cc2C#N)CC1,"inconclusive: 12.6 µM [inhibitor, single point]"
11,CC1(C)Cc2cccc(C(=O)NC3CCN(Cc4ccccc4)CC3)c2O1,inactive
12,Cc1cccc(CN(C)C[C@@H]2OCc3cnnn3CCCC(=O)N([C@@H](C)CO)C[C@H]2C)c1,inactive
13,CC(=O)N(/N=C/c1ccc(C)cc1)c1nc(CCl)cs1,inactive
14,COc1ccc(/C(C)=N/Nc2nncc3ccccc23)cc1,"inconclusive: 35.5 µM [inhibitor, partial curve, poor fit]"
15,O=[N+]([O-])c1cc(Cl)ccc1NCCc1ccccn1,inactive
16,NC(=O)CC(NC(=O)c1cccc(Br)c1)c1ccc(N2CCC(N3CCCCC3)CC2)c([N+](=O)[O-])c1 (stereo not drawn),"inconclusive: 5.62 µM [inhibitor, single point]"
17,CC1CCCN(c2ccc(C(=O)NCC3CCCO3)cn2)C1 (stereo not drawn),"inconclusive: 35.5 µM [inhibitor, single point]"
18,COc1ccc(C2C(C#N)=C(N)Oc3c2sc2nc(C)cc(C)c32)cc1 (stereo not drawn),inactive
19,Cc1ccc(-c2cc(C(=O)Nc3c(C(=O)c4ccccc4)oc4ccccc34)no2)cc1F,inactive
20,COc1cc(/C=C2\SC(=S)N(NC(C)=O)C2=O)ccc1OC(=O)c1ccco1,inactive
21,NC1=NC[C@@H](Cc2ccc(O)cc2)N1CCCCC1CCCCC1,inactive
22,Cc1ccc(Cc2nc3ccccc3nc2SCC(=O)Nc2cccc(C(F)(F)F)c2)cc1,"inconclusive: 15.8 µM [inhibitor, partial curve]"
